In article PMC7819943, “Rice protein-binding microarrays: a tool to detect cis-acting elements near promoter regions in rice”:
The other results are listed elsewhere or left out.

These sequences were tested against T1, OsWOX13 (Oryza sativa, UniProt Q5QMM3 1-267) (assay: protein-binding microarray (RPBM); PBS, 2% BSA, 51.3 ng/ul salmon testes DNA, 50 uM zinc acetate, 200 nM TF, 25 C, 1 h; high values mean tight binding). Settings: protein: recombinant; tags: N-terminal polyhistidine and DsRed monomer fusion (pET32a); label: CyDye5-dUTP incorporated in the synthesized complementary strand; 3' TTTTT single-stranded linker to array surface; dsDNA, one strand shown.
T1 sequence: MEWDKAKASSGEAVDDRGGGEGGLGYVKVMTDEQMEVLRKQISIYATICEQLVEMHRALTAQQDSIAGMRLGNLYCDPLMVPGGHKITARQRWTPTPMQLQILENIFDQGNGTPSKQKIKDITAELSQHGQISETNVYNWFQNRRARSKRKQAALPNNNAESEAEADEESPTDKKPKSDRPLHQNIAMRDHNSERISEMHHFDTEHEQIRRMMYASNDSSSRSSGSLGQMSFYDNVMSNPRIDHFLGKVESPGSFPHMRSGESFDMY
How it was run: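 For the binding signal, per-feature fluorescence intensity was read in arbitrary units on an Axon 4000B scanner. Before scanning, a 2% BSA-blocked custom Agilent array made double-stranded with Cy5-dUTP was washed after 1 h at 25 °C with 200 nM protein and 50 µM zinc acetate. The proteins were Ni–NTA-purified transcription factors with N-terminal polyhistidine and DsRed fusions, expressed in E. coli BL21-CodonPlus.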

Sequence | binding signal
CCCTAAATTGGCCTTACCAATATTTGGCAATTTCAATAGTCGGAGTCACCTAGTGCAG | 34300 fluorescence intensity (a.u.)
TAGTAACTATAAATCAATGGTTAAGATTTCTTTCAGTCCTCGGAGTCACCTAGTGCAG | 9460 fluorescence intensity (a.u.)
TTTAAATCAACTTGGGCAAATTTGATCTGAAATCCACTCACGGAGTCACCTAGTGCAG | 4710 fluorescence intensity (a.u.)
TAATCAATCAATCATCCAACCCAGCCAGCGTGATCAGTTTCGGAGTCACCTAGTGCAG | 39500 fluorescence intensity (a.u.)
AATAATTAATCAAGCAAAACGAGTAGCTAAGCTAGCTCGTCGGAGTCACCTAGTGCAG | 18000 fluorescence intensity (a.u.)
GCTTAAATTAATATACCTGAACCGGCGAGCATTTAAATTTCGGAGTCACCTAGTGCAG | 5370 fluorescence intensity (a.u.)
CTCCTTCATCTCTAATCACGCACATGCAACTCACTAGCTCCGGAGTCACCTAGTGCAG | 3850 fluorescence intensity (a.u.)
CAACAATGATAAATTTACCCGGTCCAAATTGAAAAGATAGCGGAGTCACCTAGTGCAG | 10400 fluorescence intensity (a.u.)
TAATTTAGATGATTTATATTTTAAGATCCGTCATGAGAAACGGAGTCACCTAGTGCAG | 6850 fluorescence intensity (a.u.)
TTATTGATGAACAAACTAAAATAATCAAGCTACAGGGACTCGGAGTCACCTAGTGCAG | 8030 fluorescence intensity (a.u.)
TGAATTGATGGATTCGGTCTCATGCAGTCAATAGTGTGACCGGAGTCACCTAGTGCAG | 26300 fluorescence intensity (a.u.)
TGACTCTTATTTAACGACTGATTGTTGTCAAGATAATGAACGGAGTCACCTAGTGCAG | 3770 fluorescence intensity (a.u.)
TAAATTAATTATTAAACACAGCCATTAATGTGCGAGGTACCGGAGTCACCTAGTGCAG | 34800 fluorescence intensity (a.u.)
TTGGCACTACCAAATCAATCAGGTAGTGTTGAATTTGAACCGGAGTCACCTAGTGCAG | 3630 fluorescence intensity (a.u.)
ATAATTTGATCAAATTACATGTGATTTTGTGAAATTTACACGGAGTCACCTAGTGCAG | 39700 fluorescence intensity (a.u.)
ACAAAATCACATAAAAGATTTATAAATATCTAACCACAGCCGGAGTCACCTAGTGCAG | 5960 fluorescence intensity (a.u.)
AAAACATAATTAGCTGCACGCACTACGTACACAAGATCACCGGAGTCACCTAGTGCAG | 12300 fluorescence intensity (a.u.)
AGCTGATAGATCATTTTAAGCACGCTGGGCCAAATGGGCACGGAGTCACCTAGTGCAG | 21400 fluorescence intensity (a.u.)
CACACTATTAATCATTTTGATTTTGGTATACTGCACTTTTCGGAGTCACCTAGTGCAG | 6110 fluorescence intensity (a.u.)
ATAATAAACTATGGGATGATTTCAAATAATACTCAAATCGCGGAGTCACCTAGTGCAG | 5300 fluorescence intensity (a.u.)
TCTTAATAAATTTCGGCCGAAGTAACTTTCGTCGGCCTGGCGGAGTCACCTAGTGCAG | 3380 fluorescence intensity (a.u.)

Sequence | binding signal
CCATTAACTAAAAGACAGCATGATCGCTACAGAGGTTACGCGGAGTCACCTAGTGCAG | 3160 fluorescence intensity (a.u.)
TATATATATATATATATATATATATAGCTGGGCGATGAACCGGAGTCACCTAGTGCAG | 16300 fluorescence intensity (a.u.)
ATGAATAATGGAAAGATTATGTTAAACCCTCTCCAGATTGCGGAGTCACCTAGTGCAG | 9630 fluorescence intensity (a.u.)
CGTGACCGCTTGCTAATTGTTATGCAGTACGTACTACTATCGGAGTCACCTAGTGCAG | 9640 fluorescence intensity (a.u.)
ATTTTATAAATTAATTTATAGAATTTAAAATCCGTATTTCCGGAGTCACCTAGTGCAG | 17300 fluorescence intensity (a.u.)
GACATTAATTAATTTAAATTAACGCTCACTGTTCATCGCCCGGAGTCACCTAGTGCAG | 65500 fluorescence intensity (a.u.)
CTAAAATAATTGGGAGCGAAACTGAAGTTGTAGAATCCGGCGGAGTCACCTAGTGCAG | 37900 fluorescence intensity (a.u.)
TCCCTTAAATACCAATTAAATGGTTACAGAAATTCTAAAACGGAGTCACCTAGTGCAG | 9190 fluorescence intensity (a.u.)
AATTTTAATTTCTTTTAACAAAATTTATTTGGTGTTCATCCGGAGTCACCTAGTGCAG | 10400 fluorescence intensity (a.u.)
CTTTTCAATCAACTTGTTTAGTTTATTGGTTATCCATTTGCGGAGTCACCTAGTGCAG | 34400 fluorescence intensity (a.u.)
TTTAACAGACGAAAACAGCTGTTATTGTGTTCTTTGTTGACGGAGTCACCTAGTGCAG | 17300 fluorescence intensity (a.u.)
AGGACTAATAGATTTCCAAGATGATCGGGACTGACCGATCCGGAGTCACCTAGTGCAG | 10600 fluorescence intensity (a.u.)
AACCTTATGACGAAGTAATCACCAAATTAAGGCCATGCATCGGAGTCACCTAGTGCAG | 4160 fluorescence intensity (a.u.)
ATCTTTAATTTGCTCATGGCCATTGGGACCCAATCACCCACGGAGTCACCTAGTGCAG | 19900 fluorescence intensity (a.u.)
AGATAACCGTATCAATCTTAACCCTGTCTTATATTATGGGCGGAGTCACCTAGTGCAG | 5600 fluorescence intensity (a.u.)
AAAACTACACAATCAACGAATGGGTCCACTTACGAGATGACGGAGTCACCTAGTGCAG | 5180 fluorescence intensity (a.u.)
CAACAATACAGTTATTGGTAATTACAAGCTACTAGTATACCGGAGTCACCTAGTGCAG | 7790 fluorescence intensity (a.u.)
TTCTGAAGATTGGTTGAGACAGCATAAACAAGTTATATTCCGGAGTCACCTAGTGCAG | 14500 fluorescence intensity (a.u.)
TTAATTAGCATCAGCACCATCTAGCCATGTATGCAAACCCCGGAGTCACCTAGTGCAG | 6230 fluorescence intensity (a.u.)
ATCTCCATGATTTGATAATTAATATAATGCTACAGTAAACCGGAGTCACCTAGTGCAG | 27900 fluorescence intensity (a.u.)
GTATTAAATTTAAGAAAGCCATTAAGATGATAAGTTGTTGCGGAGTCACCTAGTGCAG | 5080 fluorescence intensity (a.u.)

Sequence | binding signal
CACGCTTATAATTATTTCTTAAACAAATGTTTGGAGGGACCGGAGTCACCTAGTGCAG | 10200 fluorescence intensity (a.u.)
GAATTTAATATCGGATGTGATTGTAACATATTCTAGTACTCGGAGTCACCTAGTGCAG | 5270 fluorescence intensity (a.u.)
GTAAACTGATAATGTAATATTGAAGCAATGCTAATCCCTTCGGAGTCACCTAGTGCAG | 8810 fluorescence intensity (a.u.)
ACCTAATTGGAATTCCCGTTACAATCCAGAACTATTGAATCGGAGTCACCTAGTGCAG | 44000 fluorescence intensity (a.u.)
TGTCATTGTCCAAAACGTCAATTAAAATGAAACAGGAGGGCGGAGTCACCTAGTGCAG | 3960 fluorescence intensity (a.u.)
CTTCTTGATTGATTTATACTAACTGCGCACACACTTTATTCGGAGTCACCTAGTGCAG | 55200 fluorescence intensity (a.u.)
ACATTAACAGAAATTACGTTAAAAGCATCTCAAAATCAACCGGAGTCACCTAGTGCAG | 14600 fluorescence intensity (a.u.)
AAGAGATAAAATTTGATCCAATCATGCATGCGTTTGGTGGCGGAGTCACCTAGTGCAG | 8400 fluorescence intensity (a.u.)
GTGCAAATCATTTAAAATCTTGAAGCATGCCTGATCATGCCGGAGTCACCTAGTGCAG | 9160 fluorescence intensity (a.u.)
CCAACAGTAATTAAATGCAGATAAACAGAGATGAAATGGACGGAGTCACCTAGTGCAG | 10500 fluorescence intensity (a.u.)
TGAGATTGTGGACTAATGGACCGCTGCTTTGGAAGTTAGTCGGAGTCACCTAGTGCAG | 6590 fluorescence intensity (a.u.)
AAAATTTATACAATAATCCAAATGGATAGAAATTGAATTCCGGAGTCACCTAGTGCAG | 5680 fluorescence intensity (a.u.)
CATATGATATTTGCTAATCAATAGCGGACAAGCCATCTCTCGGAGTCACCTAGTGCAG | 6800 fluorescence intensity (a.u.)
AAGATCAATGATGGATCCAATCATCCAATATACAAACGGACGGAGTCACCTAGTGCAG | 29600 fluorescence intensity (a.u.)
AATAATGAGATCAATTGGAACTTGCACCATTGTTTATTTTCGGAGTCACCTAGTGCAG | 3920 fluorescence intensity (a.u.)
ATCTGATGAGATGCATGTAGATATTATACTGACGATTCGTCGGAGTCACCTAGTGCAG | 3550 fluorescence intensity (a.u.)
CTAAAACTGAACATCTTTAATTACAGCTATTACTCTGTTCCGGAGTCACCTAGTGCAG | 6750 fluorescence intensity (a.u.)
GCATGACAGCATGTGACAGGGTTTACAAAACTGAACGCCCCGGAGTCACCTAGTGCAG | 14100 fluorescence intensity (a.u.)
CCATATAGATTGGCATCTTATAGAGCATGAAAGAGAATGCCGGAGTCACCTAGTGCAG | 13500 fluorescence intensity (a.u.)
AGGATCTAATATCAAATAATTAGAATGGGTGAGGTTTCAACGGAGTCACCTAGTGCAG | 4180 fluorescence intensity (a.u.)
TTACTAATTGGTGAAATCCCATATTGATAACATATATTCACGGAGTCACCTAGTGCAG | 33100 fluorescence intensity (a.u.)

Sequence | binding signal
AGGTAGTGCTTGATTTATAGTGTTTATGGTGAAGAAATTTCGGAGTCACCTAGTGCAG | 3510 fluorescence intensity (a.u.)
GTTCACGTTGACTGCATCTGTCACTTGTGCTGGTTTCTGTCGGAGTCACCTAGTGCAG | 4360 fluorescence intensity (a.u.)
TTCACTTGAATTAATTGATGATGTGTAATGACATGACTAGCGGAGTCACCTAGTGCAG | 26700 fluorescence intensity (a.u.)
ATAATTGTTTGACCTAATTAGGGAAATGAACAGCAGTAAACGGAGTCACCTAGTGCAG | 34100 fluorescence intensity (a.u.)
GTATCTAATCAAATTATTGCCATTGCAGGTTCGACTTATGCGGAGTCACCTAGTGCAG | 14200 fluorescence intensity (a.u.)
TTGGATTGAGGGAGTATAATTCTTAAACCTAGCAATTAGCCGGAGTCACCTAGTGCAG | 11500 fluorescence intensity (a.u.)
CGAGATTGATTAGGACTCGGAATCGATCGGAGTCGGAGTACGGAGTCACCTAGTGCAG | 54800 fluorescence intensity (a.u.)
TTTTATCTCACCAATCAATTTAATTTCTTTATTTATTTTCCGGAGTCACCTAGTGCAG | 6870 fluorescence intensity (a.u.)
CAAAATTGAAGTCTTGACCCTACCAAACTCCGCCATTCTTCGGAGTCACCTAGTGCAG | 8730 fluorescence intensity (a.u.)
TGTTGGTCCGTCTCCGAGTTGTTTCCCTATTTGGGCCTTCCGGAGTCACCTAGTGCAG | 5110 fluorescence intensity (a.u.)
TCAATAAATTTGTGTTTTATGTTTCTATTGGTGTTAGTAGCGGAGTCACCTAGTGCAG | 16200 fluorescence intensity (a.u.)
TTGATTATCCTTCGGCGACTAGCTAACTCTAAATGGAACTCGGAGTCACCTAGTGCAG | 3230 fluorescence intensity (a.u.)
ACACATAAATTATTAATCATGTTTTATCATCTAACAACAACGGAGTCACCTAGTGCAG | 14100 fluorescence intensity (a.u.)
AATAGATTAATAGACATAACACAGTGCGGCAATTCAATCACGGAGTCACCTAGTGCAG | 21400 fluorescence intensity (a.u.)
ATATATAATCAATTAAATATTAACTATTAAAGATTTGAAACGGAGTCACCTAGTGCAG | 6080 fluorescence intensity (a.u.)
GAAATAAATTATAGATATAATTACTATATGCTTACATGTTCGGAGTCACCTAGTGCAG | 32900 fluorescence intensity (a.u.)
TTGTTAAATTGAAAAGTGTAATAGAAAGGTTGTTGACGTGCGGAGTCACCTAGTGCAG | 40200 fluorescence intensity (a.u.)
GTTAATTAGCTGGAGTAGTTTGTTCAGTCACTCCACTATACGGAGTCACCTAGTGCAG | 35600 fluorescence intensity (a.u.)
ATATCACGGCTAATTATCCCAAAATTAATTCAAAACGAGTCGGAGTCACCTAGTGCAG | 10800 fluorescence intensity (a.u.)
CTTTAATTGAAAGTGGCATTTTAACGAGGCCCACTCCCAGCGGAGTCACCTAGTGCAG | 45700 fluorescence intensity (a.u.)
ACTGTTAAATTAAGTAGGAGCACTGTGTGTGATCTTTTGGCGGAGTCACCTAGTGCAG | 3720 fluorescence intensity (a.u.)
